Read counts are not given, so values of variants with three or more changes are uncertain.
B1: LINE1-full (parent)
chain: UACGUAGGUGGUUUUCCCCUGAUAGUGCUAAGGGGGCCUGGAAGUUUGGACUGGGCAGAGCUCAACACAGCGUGGCAAAGUGGCUGUGGCUAGACUGCCUCUCUGGAUUCCUCGUCACUCAGCAGGGCAUCUCUGAGAGAAAUGCC

Variants of: B1
Assay: self-cleavage, relative activity (ratio to wild type); higher = more cleavage; in vitro, sequencing; the parent is a self-cleaving ribozyme

Variant | self-cleavage
UACGUAGGUGGUUUUCCCCUGAUAGUGCUAAGGGGGCCUGGAAGUUUGGACUGGGCAGAGCCCAACACAGCGUGGCAAGGUGGCUGUGGCUAGACUGCCUCUCUGGAUUCCUCGUCACCCAGCAGGGCAUCUCUGAGAGAAAUGCC | 0
UACGUAGGUGGUUUUCCCCUGAUAGUGCUAAGGGGGCCUGGAAGUUUGGACUGGGCAGAGCCCAACACAGCGUGGCAAAGUGGCAGUGGCUAGACUGCCUCUCUGGAUUCCUCGUCACUCAGCAGGGCACCUCUGGGAGAAAUGCC | 0.16
UACGUAGGUGGUUUUCCCCUGAUAGUGCUAAGGGGGCCUGGAAGUUUGGACUGGGCAGAGCCCAACACAGCGUGGCAAAGUGGCUGUGGCUAGACUGCCUCUCUGGAUUCCUCGUCACUCAGCUGGGCAUCUCUGGGAGAAAUGCC | 0.06
UACGUAGGUGGUUUUCCCCUGAUAGUGCUAAGGGGGCCUGGAAGUUUGGACUGGGCAGAGCCCAACACAGCGUGGCAAAGUGGCUGUGGCUAGACUGCCUCUCUGGAUUCCUUGUCACUCAGCAGGGCAUCUCUGAGAGUAAUGCC | 0.05
UACGUAGGUGGUUUUCCCCUGAUAGUGCUAAGGGGGCCUGGAAGUUUGGACUGGGCAGAGCCCAACACAGCGUGGCAAAGAGGCUGUGGCUAGACUGCCUCUCUUGAUUCCUCGUCACUCAGCAGGGCAUCUCAGAGAGAAAUGCC | 0.03
UACGUAGGUGGUUUUCCCCUGAUAGUGCUAAGGGGGCCUGGAAGUUUGGACUGGGCAGAGCCCAACACAGCGUGGCAAAGUGGCAGUGGCAAGACUGCCUCUCUGGAUUCCUCGACACUCAGCAGGGCAUCUCUGAGAGAUAUGCC | 0
UACGUAGGUGGUUUUCCCCUGAUAGUGCUAAGGGGGCCUGGAAGUUUGGACUGGGCAGAGCCCAACACAGCGUGGCAAAGUGGCUGUGGCUAGACUGCCUCUCUGGAUUCCUCGUCACUCAGCGGGGCAUCUCAGAGAGAAAUGCC | 0.06
UACGUAGGUGGUUUUCCCCUGAUAGUGCUAAGGGGGCCUGGAAGUUUGGACUGGGCAGAGCCCAACACAGCGUGGCAAAGUGGCUGUGGCUAGACUACCUCUCUGGAUUCCCCGUCACUCAGCAGGGCAUCUCUGAGAGAAAUGCC | 0.01
UACGUAGGUGGUUUUCCCCUGAUAGUGCUAAGGGGGCCUGGAAGUUUGGACUGGGCAGAGCCCAACACAGCGUGGCAAAGUGGCUGUGGCUUGACUGCCUCUCUGGAUUCCUCGUCACUCUGCAGGGCAUCUCUGAGAGGAAUGCC | 0
UACGUAGGUGGUUUUCCCCUGAUAGUGCUAAGGGGGCCUGGAAGUUUGGACUGGGCAGAGCCCAACACAGCGUGGCAAAGUGGCUGUGGCUAGACUACCUCCCUGGAUUCCUCGUCACUCAGCAGGGCAUCUCUGAGAGAAAUGCC | 0.01
UACGUAGGUGGUUUUCCCCUGAUAGUGCUAAGGGGGCCUGGAAGUUUGGACUGGGCAGAGCCCAACACAGCGUGGCAAAGUGGCUGUGGCUAGACUGCCUCUCUGGAUUCCUCGUCACUCAGCAGAGCACCUCUGAGAGAAAUGCC | 0
UACGUAGGUGGUUUUCCCCUGAUAGUGCUAAGGGGGCCUGGAAGUUUGGACUGGGCAGAGCCCAACACAGCGUGGCAAAGUGGCUGUGGCUAGGCUGCCUCUCAGGAUUCCUCGUCACUCAGCAAGGCAUCUCAGGGAGAAAUGCC | 0.03
UACGUAGGUGGUUUUCCCCUGAUAGUGCUAAGGGGGCCUGGAAGUUUGGACUGGGCAGAGCCCAACACAGCGUGGCAAAGUGGCUGUGGCUAGACUGCCUCUCUGGAUUCCUCGUCACUCAGCAGGGCAUCUCUGAGUGAAUUGCC | 0.04
UACGUAGGUGGUUUUCCCCUGAUAGUGCUAAGGGGGCCUGGAAGUUUGGACUGGGCAGAGCCCAACACAGCGAGGCAAAGUGGCUGUGGCUAGACUGCCUCUCUGGAUUCCUCGUCACUCGGCAGGGCAUCUCUGAGAGAAAUGCC | 0.06
UACGUAGGUGGUUUUCCCCUGAUAGUGCUAAGGGGGCCUGGAAGUUUGGACUGGGCAGAGCCAAACACAGCGUGGCAAAGUGGCUGUGGCUAGACUGCCUCUCUGGAAUCCUCGUCACUCAGCAGGGCAUCUCUGAGAGAAAUGCC | 0.05
UACGUAGGUGGUUUUCCCCUGAUAGUGCUAAGGGGGCCUGGAAGUUUGGACUGGGCAGAGCCCAACACAGCGUGGCAAAGUGGCUGUGGCUAGGCUGCCUCUCUGGAUUCCUCGUCACUCAGCAGGGCAUCUCUGAGGGAAAUGCC | 0
UACGUAGGUGGUUUUCCCCUGAUAGUGCUAAGGGGGCCUGGAAGUUUGGACUGGGCAGAGCCCAACACAGCGUGGCAAAGUGGCUGUGGCUAGACUGCCUCUCUGGCUUCCUCGUCCCUCAGCAGGGCAUCUCUGAGAGAAAUGCC | 0
UACGUAGGUGGUUUUCCCCUGAUAGUGCUAAGGGGGCCUGGAAGUUUGGACUGGGCAGAGCCCAACACAGCGUGGCAAAGUGGCUGUGGCUAGACUGCCUCUCUGGAUUCCUCGUCACUCAGCUGGGCAUCUCUGAGAGAGAUGGC | 0.09
UACGUAGGUGGUUUUCCCCUGAUAGUGCUAAGGGGGCCUGGAAGUUUGGACUGGGCAGAGCCCAACACAGCGUGGCAAAGUGGUUGUGGCUAGACUGCCUCUCUGGAUCCCUCGUCACUCAGCAGGGCAUCUCUGAGAGGAAUGCC | 0.03
UACGUAGGUGGUUUUCCCCUGAUAGUGCUAAGGGGGCCUGGAAGUUUGGACUGGGCAGAGCCCAACACAGCGAGGCAAAGUGGCUAUGGCUAGACUGCCUCUCUGGAUUCCUCGUCACUCAGCAGGGCAUCUCUGAGAGAAAUGCC | 0.01

Variant | self-cleavage
UACGUAGGUGGUUUUCCCCUGAUAGUGCUAAGGGGGCCUGGAAGUUUGGACUGGGCAGAGCCCAACACAGCGUGGCAAAGUGGCUGUGGCUGGACUGCCUCUCUGGAUUCCUCGUCACUCAGCAGGGCAUCUCUGAGAGAGAUGCC | 0
UACGUAGGUGGUUUUCCCCUGAUAGUGCUAAGGGGGCCUGGAAGUUUGGACUGGGCAGAGCCCAACACAGCGCGGCAAAGUGGCUGUGGCAAGACUGCCUCUCUGGAUUCCUCGUCACUCAGCAGGGCAUCUCUGAGAGAAAUGCC | 0.71
UACGUAGGUGGUUUUCCCCUGAUAGUGCUAAGGGGGCCUGGAAGUUUGGACUGGGCAGAGCCCAACACAGCGUAGCAUAGUGGCUGAGGCUAGACAGCCUCUCUGGAUUCCACGUCACUCAGCAGGGCAUCUCUGAGAGAAAUGCC | 0.01
UACGUAGGUGGUUUUCCCCUGAUAGUGCUAAGGGGGCCUGGAAGUUUGGACUGGGCAGAGCCCAACACAGCGAGGCAAAGUGGCUGUGGCUAGACUGCCUCUCUGGAUACCUCGUCACUCAGCAGGGCAUCUCUGAGAGAAAUGCC | 0.03
UACGUAGGUGGUUUUCCCCUGAUAGUGCUAAGGGGGCCUGGAAGUUUGGACUGGGCAGAGCCCAACACAGCGUGGCAAAGAGGCUGUGGCUAGACUGCCUCUCUGGAUUCCUCGUCGCUCAGCAGGGCAUCUCUGAGAGAAAUGCC | 0.04
UACGUAGGUGGUUUUCCCCUGAUAGUGCUAAGGGGGCCUGGAAGUUUGGACUGGGCAGAGCCCAACACAGCGUGGCAAAGUGGCUGUGGCUAGACUGCCUCUCUGGAUUCCUCGUCACUCUGCAGGGCAACUCUGAGAGAAAUGCC | 0.08
UACGUAGGUGGUUUUCCCCUGAUAGUGCUAAGGGGGCCUGGAAGUUUGGACUGGGCAGAGCCCAACACAGCGCGGCAAAGUGGCUGUGGCUAGACUGCCUCUCUGGAUUCCUCGUCACUCAGCAGGGCACCUCUGAGAGAAAUGCC | 0.12
UACGUAGGUGGUUUUCCCCUGAUAGUGCUAAGGGGGCCUGGAAGUUUGGACUGGGCAGAGCCCAACACAGCGUGGCAAAGUGGCUGUGGCUAGACUGCCUCUCUGGAUUCCUCGUCACUCAGCAGGGCAUCUCUGCGGGAAAUGCC | 0.06
UACGUAGGUGGUUUUCCCCUGAUAGUGCUAAGGGGGCCUGGAAGUUUGGACUGGGCAGAGCCCAACACAGCGUGGCAAAGUGGCUGUGGCUAGACUGCCUCUCUGGAUUCCUCGUCGCUCAGCAGGGCAUCUCUGAGGGAAAUGCC | 0
UACGUAGGUGGUUUUCCCCUGAUAGUGCUAAGGGGGCCUGGAAGUUUGGACUGGGCAGAGCCCAACACAGUGAGGCAGAGUGGCUGUGGCUAGACUGCCUCUCUGGAUCCCUCGUCACUCAGCAGGGCAUCUCUGAGAGAAAUGCC | 0.05
UACGUAGGUGGUUUUCCCCUGAUAGUGCUAAGGGGGCCUGGAAGUUUGGACUGGGCAGAGCCCAACACAGCGUGGCAAAGUGGCUGUGGCUAGACUGCCUCUCUGGAUUCCUCAUCACUCAGCAGAGCAUCUCUGAGAGAAAUGCC | 0.08
UACGUAGGUGGUUUUCCCCUGAUAGUGCUAAGGGGGCCUGGAAGUUUGGACUGGGCAGAGCCCAACACAGCGUAGCAAAGUGGCUGUGGCUAGACUGCCUCUCUGGACUCCUCGUCACUCAGCAGGGCAUCUCUGAGAGAAAUGCC | 0.02
UACGUAGGUGGUUUUCCCCUGAUAGUGCUAAGGGGGCCUGGAAGUUUGGACUGGGCAGAGCCCAACACAGCGUGGCAAAGAGGCUGUGGCUAGACCGCCUCUCUGGAUUCCUCGUCACUCAGCAGGGCAUCUCUGAGAGAAAUGCC | 0.04
UACGUAGGUGGUUUUCCCCUGAUAGUGCUAAGGGGGCCUGGAAGUUUGGACUGGGCAGAGCCCAACACAGCGUGGCAAAGUGGCUGUGGCUAAACUGCCUCUCUGGAUUCCUCGACACUCAGCAGGGCACCUCUGAGAGAAAUGCC | 0.05
UACGUAGGUGGUUUUCCCCUGAUAGUGCUAAGGGGGCCUGGAAGUUUGGACUGGGCAGAGCCCAACACAGCGUGGCAAAGCGGCUGAGGCUAGACUGCCUCUCUGGAUUCCUCGUCACUCAGCAGGGCAUCUCUGAGAGAAAUGCC | 0.05
UACGUAGGUGGUUUUCCCCUGAUAGUGCUAAGGGGGCCUGGAAGUUUGGACUGGGCAGAGCCCAACACAGCGUGGCAAAGUGGCUGUGGCUAGACUGCCUCUCUGGAUUCCUCGUCACUCAGCAGGGCAUCUCUGAGCGAGAUGCC | 0
UACGUAGGUGGUUUUCCCCUGAUAGUGCUAAGGGGGCCUGGAAGUUUGGACUGGGCAGAGCCCAACACAGCGCGGCAAAGUGGCUGUGGCUAGACCGCCUCUCUGGAUUCCUCGUCACUCAGCAGGGCAUCUCUGAGAGAAAUGCC | 0
UACGUAGGUGGUUUUCCCCUGAUAGUGCUAAGGGGGCCUGGAAGUUUGGACUGGGCAGAGCCCAACACAGCGCGGCAAAGUGGCAGUGGCUAGACUGCCUCUCUGGAUUCCUCGUCACUCAGCAGGGCAUCUCUGAGAGAAAUGCC | 0.08
UACGUAGGUGGUUUUCCCCUGAUAGUGCUAAGGGGGCCUGGAAGUUUGGACUGGGCAGAGCCCAACACAGCGUGGCAAAGUGGCUGUGGCUAGACUGCCUCUCUGGAUUCUUCGUCACUCAGCAGGGCAUCCCUGAGAGAAAUGCC | 0.04

— the RNAGym collection of RNA variant scans (doi:10.7554/elife.90254)
